In paper PMC6175577, “BRCT domains of the DNA damage checkpoint proteins TOPBP1/Rad4 display distinct specificities for phosphopeptide ligands” (eLife, 2018):
Numbering of substitutions follows the chain as printed. These are yes or no findings as the source states them, for the method shown. In cells and extracts the contact can be indirect. Some binding calls cover weakened binding; strength is not graded here.

Amino acid sequences for entries named in this document (tags omitted). Residues count along the entry.
UniProt Q92547, residues 1-360: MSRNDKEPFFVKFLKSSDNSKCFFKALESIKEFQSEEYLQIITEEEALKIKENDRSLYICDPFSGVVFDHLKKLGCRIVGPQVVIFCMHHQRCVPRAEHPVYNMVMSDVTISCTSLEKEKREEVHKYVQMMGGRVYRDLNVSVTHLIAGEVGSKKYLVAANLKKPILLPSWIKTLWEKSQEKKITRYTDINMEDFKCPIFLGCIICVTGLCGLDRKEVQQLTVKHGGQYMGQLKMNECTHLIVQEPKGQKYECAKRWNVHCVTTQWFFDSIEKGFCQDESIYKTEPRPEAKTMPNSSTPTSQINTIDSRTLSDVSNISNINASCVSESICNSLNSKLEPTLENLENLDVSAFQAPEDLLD

Experiments:
Assay in all cases: pull-down; biotinylated RAD9 peptides saturating streptavidin agarose; 35S-methionine-labelled TOPBP1 1-360 in vitro translated in rabbit reticulocyte lysate; 20 mM HEPES 8.0, 450 mM NaCl, 0.01% Triton, 5% glycerol, 5 mM MgCl2, 5 mM 2-mercaptoethanol; 2 hr at 4°C; SDS PAGE and autoradiography; semi-quantitative; only the target purified
[1] = biological target: T1, Biotinylated HsRAD9 pS387 peptide L-1 (human)
T1 sequence (peptide, phosphoserine at 387; biotin (position not stated)): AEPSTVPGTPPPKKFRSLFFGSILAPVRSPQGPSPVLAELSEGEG

[2] = biological target: T2, Biotinylated HsRAD9 pS387 peptide I-4 (human)
T2 sequence (peptide, phosphoserine at 387; biotin (position not stated)): T1 sequence (peptide, phosphoserine at 387; biotin (position not stated)) with L37I, L40D

[3] = biological target: T3, Biotinylated HsRAD9 pS387 peptide Q-5 (human)
T3 sequence (peptide, phosphoserine at 387; biotin (position not stated)): T1 sequence (peptide, phosphoserine at 387; biotin (position not stated)) with V36Q, L40D

[4] = biological target: T4, Biotinylated HsRAD9 peptide pS387 (C-terminal 45 residues, 347-391) (human)
T4 sequence (peptide, phosphoserine at 387; biotin (position not stated)): T1 sequence (peptide, phosphoserine at 387; biotin (position not stated)) with L40D

[5] = biological target: T5, Biotinylated HsRAD9 pS387 peptide K-1 (human)
T5 sequence (peptide, phosphoserine at 387; biotin (position not stated)): T1 sequence (peptide, phosphoserine at 387; biotin (position not stated)) with L40K

[6] = biological target: T6, Biotinylated HsRAD9 pS387 peptide V-3 (human)
T6 sequence (peptide, phosphoserine at 387; biotin (position not stated)): T1 sequence (peptide, phosphoserine at 387; biotin (position not stated)) with A38V, L40D

[7] = biological target: T7, Biotinylated HsRAD9 pS387 peptide S-1 (human)
T7 sequence (peptide, phosphoserine at 387; biotin (position not stated)): T1 sequence (peptide, phosphoserine at 387; biotin (position not stated)) with L40S

[8] = biological target: T8, Biotinylated HsRAD9 pS387 peptide S-5 (human)
T8 sequence (peptide, phosphoserine at 387; biotin (position not stated)): T1 sequence (peptide, phosphoserine at 387; biotin (position not stated)) with V36S, L40D

[9] = biological target: T9, Biotinylated HsRAD9 pS387 peptide F-4 (human)
T9 sequence (peptide, phosphoserine at 387; biotin (position not stated)): T1 sequence (peptide, phosphoserine at 387; biotin (position not stated)) with L37F, L40D

binding [1]: no binding
binding [2]: binds
binding [3]: binds
binding [4]: binds
binding [5]: no binding
binding [6]: binds
binding [7]: binds
binding [8]: binds
binding [9]: binds
Substance: N-Myc6-TEV2-hTOPBP1-1-360 (from UniProt Q92547 1-360) (domain or fragment)
